Data published in paper PMC7819943, “Rice protein-binding microarrays: a tool to detect cis-acting elements near promoter regions in rice”.
This is one part of the list.

Each sequence was assayed against T1, OsWOX13 (Oryza sativa, UniProt Q5QMM3 1-267) (assay: protein-binding microarray (RPBM); PBS, 2% BSA, 51.3 ng/ul salmon testes DNA, 50 uM zinc acetate, 200 nM TF, 25 C, 1 h; high values mean tight binding). Conditions: protein: recombinant; tags: N-terminal polyhistidine and DsRed monomer fusion (pET32a); label: CyDye5-dUTP incorporated in the synthesized complementary strand; 3' TTTTT single-stranded linker to array surface; dsDNA, one strand shown.
T1 sequence: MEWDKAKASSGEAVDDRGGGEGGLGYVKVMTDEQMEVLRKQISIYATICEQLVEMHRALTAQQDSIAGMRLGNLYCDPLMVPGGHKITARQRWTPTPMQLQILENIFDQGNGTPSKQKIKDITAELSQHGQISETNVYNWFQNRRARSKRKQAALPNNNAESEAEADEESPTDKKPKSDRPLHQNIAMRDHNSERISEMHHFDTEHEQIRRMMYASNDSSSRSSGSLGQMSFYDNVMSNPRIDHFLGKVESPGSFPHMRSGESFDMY
How it was run: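 Polyhistidine-tagged DsRed fusions of transcription factors, joined at the N-terminus, were expressed in E. coli BL21-CodonPlus and isolated on Ni–NTA. They were incubated at 200 nM for 1 h at 25 °C on a custom Agilent array, double-stranded and BSA-blocked, in PBS with 2% BSA, salmon testes DNA and 50 µM zinc acetate. The binding signal is per-feature fluorescence intensity (arbitrary units) read on an Axon 4000B scanner after washing.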

Point of comparison: “TCTAATTTTAACGTGGAACTATATGATACGTTGAATTTTACGGAGTCACCTAGTGCAG”, binding signal 5360 fluorescence intensity (a.u.). Against it:
- CTGAAATTTACCACAAATGAAATTCTTCTCCCTGATGAAACGGAGTCACCTAGTGCAG — lower, 4740 fluorescence intensity (a.u.)
- GCTCCTGATTTGCCTGATCAGATCAACAGATTAGCATGATCGGAGTCACCTAGTGCAG — higher, 23600 fluorescence intensity (a.u.)
- TTTAATTTAGTCTCATTGCTTCCGATCTATGTAAACAATACGGAGTCACCTAGTGCAG — higher, 7500 fluorescence intensity (a.u.)
- GTAATAATTGATTGGTTCAGAAATTAATCACTAATTGTCCCGGAGTCACCTAGTGCAG — higher, 65000 fluorescence intensity (a.u.)
- ACAAGGCTAATTAATTGTATATTGCGTGCAGCTGAGTGGTCGGAGTCACCTAGTGCAG — higher, 23900 fluorescence intensity (a.u.)
- TTATTGTCAAATCATGGCACAATTAGGCTTAAAAGATTTGCGGAGTCACCTAGTGCAG — lower, 3660 fluorescence intensity (a.u.)
- TCCCAATCTTCTGTTATTTATTTATTTTCTTGTTAAAATTCGGAGTCACCTAGTGCAG — higher, 5630 fluorescence intensity (a.u.)
- TGTTAACTAATGCATAGACAAGTAGTCTTCTATGTACCAACGGAGTCACCTAGTGCAG — lower, 4160 fluorescence intensity (a.u.)
- GTTAATTGCAGGCTTGTTTGGAAACTTCACACAAATTTTGCGGAGTCACCTAGTGCAG — higher, 18000 fluorescence intensity (a.u.)
- AAAATGGTAATTTAGTAGTGACATAAATTTTGAACTGGCTCGGAGTCACCTAGTGCAG — higher, 19700 fluorescence intensity (a.u.)
- AGTTGATTGTAGTCATGTAAAAGAATCTGTTTCTCCGATGCGGAGTCACCTAGTGCAG — higher, 45900 fluorescence intensity (a.u.)
- ATGGCCCAATGACTTTTGATTGATGACTGATGAGTTATTCCGGAGTCACCTAGTGCAG — higher, 27100 fluorescence intensity (a.u.)
- GTTTAATTAGTTTGTTGAGAGCAAAAGTCAAAATGATTATCGGAGTCACCTAGTGCAG — higher, 13100 fluorescence intensity (a.u.)
- TATTAAATGATGCACAAATAAATAAACGAGCGCGCACACACGGAGTCACCTAGTGCAG — higher, 5680 fluorescence intensity (a.u.)
- GCACTAATTCCCTAATTTAAACAGATCAACTGGCCTCAATCGGAGTCACCTAGTGCAG — higher, 24500 fluorescence intensity (a.u.)
- TTTGATTGCTAACCACCGTTGCTGCTCCACCGAATATTCACGGAGTCACCTAGTGCAG — higher, 25200 fluorescence intensity (a.u.)
- ATCAAATTAACTCGACCAAATATTCCCATTCACACTATTGCGGAGTCACCTAGTGCAG — higher, 7200 fluorescence intensity (a.u.)
- ACTAATTTCCAGCTAGCTACCTATATATATGTGTGTGTTACGGAGTCACCTAGTGCAG — higher, 5820 fluorescence intensity (a.u.)
- TTGATTACTTTGAGGACGTCAGGGAGCAGGGTGGGCGTGTCGGAGTCACCTAGTGCAG — higher, 9730 fluorescence intensity (a.u.)
- AATGTGGTAATTAGCTAGTGGACACCGGCTGCATTATTTTCGGAGTCACCTAGTGCAG — higher, 10900 fluorescence intensity (a.u.)
- TAAATCCATTATAATCATGTACCCCGTCCCATAATATAAGCGGAGTCACCTAGTGCAG — lower, 4180 fluorescence intensity (a.u.)
- TAACTAAACTAAACTAATTTGATATTACATATGTTACTATCGGAGTCACCTAGTGCAG — higher, 19500 fluorescence intensity (a.u.)
- CGTCGTCGTTAGTCTAATGATTGATTAGGAAGGAAAGTACCGGAGTCACCTAGTGCAG — higher, 29600 fluorescence intensity (a.u.)
- TAATATTGACGAGAAAGCCACCTCCTCTCTCTCGCTCGCTCGGAGTCACCTAGTGCAG — lower, 3320 fluorescence intensity (a.u.)
- GCAAAGTTAACTGAAATTGAATAGGCTTTGTTCAGATTCACGGAGTCACCTAGTGCAG — higher, 11500 fluorescence intensity (a.u.)
- AAAATATTATCTAAATTATGGAGCAATTTAATGGCAAAATCGGAGTCACCTAGTGCAG — lower, 3770 fluorescence intensity (a.u.)
- CGACCATGATTGACGCCTTCAAGGGTGCGAAACCGTCCTGCGGAGTCACCTAGTGCAG — higher, 50800 fluorescence intensity (a.u.)
- ATTGATTTTAGTGCTTATATAAGTTTATATTGTTTAGCTACGGAGTCACCTAGTGCAG — higher, 13300 fluorescence intensity (a.u.)
- GTTGTTGATGTGATTGTGTGTATTCAAGTAGAGATTGGGTCGGAGTCACCTAGTGCAG — higher, 24300 fluorescence intensity (a.u.)
- CTAAATATTATATCATCAATCTCCGCCGACTCCCTCGAATCGGAGTCACCTAGTGCAG — higher, 6230 fluorescence intensity (a.u.)
- GTCAAATTAAACTGCAATCCGCGCTAAGATGGGGAGTAACCGGAGTCACCTAGTGCAG — higher, 14100 fluorescence intensity (a.u.)
- CCATTCACAAATTGGCAAGATTTTCCACTAAGAAATGCACCGGAGTCACCTAGTGCAG — higher, 16300 fluorescence intensity (a.u.)
- TAATAATTATAAGCTGAATCAAACAGGGTCTTAGTTTTGGCGGAGTCACCTAGTGCAG — higher, 21100 fluorescence intensity (a.u.)
- GAACAAATTGGAATTCGCTGGTTAGTCAAATACTGCACATCGGAGTCACCTAGTGCAG — higher, 12100 fluorescence intensity (a.u.)
- GTGTGATGATTAGATATATTTGCATGTTGATTTGTTGAATCGGAGTCACCTAGTGCAG — higher, 49500 fluorescence intensity (a.u.)
- GCACTAATTGGATAGATCCATCCATCACGATCGAGCTCACCGGAGTCACCTAGTGCAG — higher, 46900 fluorescence intensity (a.u.)
- ATAATATGATAGAGGGAGTACCAATGTTTCGTTTTGGGTCCGGAGTCACCTAGTGCAG — lower, 3400 fluorescence intensity (a.u.)
- GCCAATAATTTCTTGACGACAACGACATACTACCTCCATTCGGAGTCACCTAGTGCAG — higher, 15200 fluorescence intensity (a.u.)
- AAATAATTTCAACATTAGGCTACGATCAGTTGAGCCACTGCGGAGTCACCTAGTGCAG — lower, 3980 fluorescence intensity (a.u.)
- CTGTTTGATTTAGCTTAGGATTATTAGGTGTAAGCTGAAACGGAGTCACCTAGTGCAG — lower, 3910 fluorescence intensity (a.u.)
- TTTCTTGTTGATTGCAGGATCAAATCAACTGGCACGCTCACGGAGTCACCTAGTGCAG — higher, 19100 fluorescence intensity (a.u.)
